Hit rate of the full screen: of about 310,000 compounds, about 14,000 (4.5%) showed an effect of 50% or more. Effects have a minus sign here. Some of the results follow.
The compounds below were run against human ether-à-go-go-related gene (hERG) potassium channel (human, UniProt Q12809) (assay: primary screen, population patch clamp on CHO cells stably expressing hERG).
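Further: peak tail current of the secondary pulse compared with the same well before compound.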

Chain of human ether-à-go-go-related gene (hERG) potassium channel (Q12809 whole entry, looked up): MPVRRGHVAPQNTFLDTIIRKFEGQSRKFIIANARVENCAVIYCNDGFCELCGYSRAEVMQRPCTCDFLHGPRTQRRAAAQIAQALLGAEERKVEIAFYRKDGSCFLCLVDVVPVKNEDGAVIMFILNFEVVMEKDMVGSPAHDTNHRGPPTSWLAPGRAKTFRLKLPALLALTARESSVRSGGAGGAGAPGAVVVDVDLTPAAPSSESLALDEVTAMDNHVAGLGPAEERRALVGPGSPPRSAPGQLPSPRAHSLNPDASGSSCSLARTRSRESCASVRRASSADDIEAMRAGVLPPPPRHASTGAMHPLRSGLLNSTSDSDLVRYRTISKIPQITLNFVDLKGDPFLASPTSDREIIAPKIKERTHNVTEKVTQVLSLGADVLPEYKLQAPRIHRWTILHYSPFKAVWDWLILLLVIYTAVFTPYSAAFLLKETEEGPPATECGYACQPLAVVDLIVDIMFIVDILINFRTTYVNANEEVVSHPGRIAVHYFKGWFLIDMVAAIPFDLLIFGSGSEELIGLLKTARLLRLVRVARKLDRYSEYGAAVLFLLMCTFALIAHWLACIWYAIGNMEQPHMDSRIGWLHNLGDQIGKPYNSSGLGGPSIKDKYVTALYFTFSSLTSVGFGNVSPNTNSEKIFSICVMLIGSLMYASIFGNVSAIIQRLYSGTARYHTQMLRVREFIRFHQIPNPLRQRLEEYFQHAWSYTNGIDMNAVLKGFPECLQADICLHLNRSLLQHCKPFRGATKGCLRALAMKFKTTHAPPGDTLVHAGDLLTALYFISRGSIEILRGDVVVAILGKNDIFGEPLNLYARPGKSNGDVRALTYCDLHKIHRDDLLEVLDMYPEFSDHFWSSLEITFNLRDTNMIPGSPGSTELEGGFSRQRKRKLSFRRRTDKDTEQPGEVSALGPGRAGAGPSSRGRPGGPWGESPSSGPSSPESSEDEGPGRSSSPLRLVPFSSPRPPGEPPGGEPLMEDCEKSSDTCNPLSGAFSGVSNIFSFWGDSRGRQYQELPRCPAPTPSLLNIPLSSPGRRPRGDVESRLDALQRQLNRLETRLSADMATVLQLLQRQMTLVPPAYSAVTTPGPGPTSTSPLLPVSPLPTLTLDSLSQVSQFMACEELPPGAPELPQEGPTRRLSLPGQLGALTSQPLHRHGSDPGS

Compound	hERG current change (%, negative = inhibition) at 10uM [%]
COc1ccc(C(C)=O)cc1CSc1nnc(-c2ccncc2)n1C	24.2
O=C1NC(=S)N/C1=C/c1cc([N+](=O)[O-])ccc1O	12.8
O=C(CSc1ccc2nnc(CCNC(=O)c3ccccc3)n2n1)Nc1ccc(F)cc1F	-5.36
CCN(CC)C(=O)C1CC(=O)OC1(C)C (centres unmarked)	-2.28
O=C(NCC1CCCO1)c1nn2c(C(F)(F)F)cc(-c3cc(Br)cs3)nc2c1Br (centres unmarked)	25.9
CCn1ncc(Br)c1C(=O)NC1CCCCCCC1	-11.5
COc1ccc(OCCCC(=O)N2CCN(S(=O)(=O)c3cccc(F)c3)CC2)cc1	-18.8
Cc1[nH]c2ccccc2c1/C=N/NC(=O)c1cc(-c2ccccc2)n[nH]1	13.6
CCN(CC(=O)Nc1ccc(N2CCOCC2)cc1)C(=O)COc1ccccc1OC	9.22
COc1ccc(OC)c(NC(=O)c2cnn(-c3ccccc3Cl)c2NC(=O)c2ccco2)c1	-7.13
COc1ccc(/C(O)=C2/C(=O)C(=O)N(CCCC(=O)O)C2c2ccc(OC)c(OC)c2)cc1 (centres unmarked)	7.9
COC(=O)c1ccc(CN(Cc2ccc(C(=O)OC)o2)C(C)(C)C)o1.Cl	-15.5
N#Cc1c(NC(=O)CSc2nc3ccccc3c(=O)n2Cc2ccco2)sc2c1CCCC2	3.63
CC/C(C)=C1\SC(N2CCN(c3cccc(C(F)(F)F)c3)CC2)=NC1=O	-7.91
N#CC(C#N)=Cc1cnc(N2CCN(c3ccccc3)CC2)s1	23
CCC(=O)NCCc1cc2cc(C)c(C)cc2[nH]c1=O	7.14
Cc1ccc(NC(=O)C2C3/C=C\CCCCC32)cc1C (centres unmarked)	11.7
COC(=O)n1c(=O)oc2cc(S(=O)(=O)N3CCCCC3)ccc21	-4.03
OC1CCCN(CC(O)COC(c2ccccc2)c2ccccc2)C1 (centres unmarked)	-18
COc1ccc(Cn2nnnc2CN2CCCCCC2)cc1	15.1
CCOC(=O)c1c(C)nn(-c2ccc(NC(=O)CSCC(=O)O)cc2)c1C	10.8
COC(=O)c1ccc(NC(=S)NCCCn2ccnc2)cc1	17.8
c1ccc(N2CCN(Cc3nc4ccccc4[nH]3)CC2)nc1	9.64

Compound	hERG current change (%, negative = inhibition) at 10uM [%]
CNC(=S)N/N=C(\C)c1ccc2c(c1)OCCO2	9.21
COCCn1cnc2cc(C)c(C)cc21	1.27
C=CCNC(=S)Nc1ccc2nsnc2c1	1.87
COc1cc2[nH]c(=O)n(CCCCCC(=O)NCCCN3CCOCC3)c(=O)c2cc1OC	-3.69
CCOc1c(Nc2cccc(Cl)c2)c(=O)c1=O	-14.2
Cc1ccc(S(=O)(=O)N2CCN(C(=O)CSc3cc(C)ccc3C)CC2)c(C)c1	-3.08
COc1ccc(-c2c(C#Cc3ccccc3)c3ccccc3n2C)cc1	23.5
C/C(=N\NC(=O)CNC(=O)c1ccc2c(c1)OCO2)c1ccco1	0.404
CC1(C)O[C@@H]2C[C@H]3[C@@H]4C[C@H](F)C5=CC(=O)CC[C@]5(C)[C@H]4[C@@H](O)C[C@]3(C)[C@]2(C(=O)CO)O1	10.3
CSc1ccccc1C(=O)N(C)C(c1ccccc1)c1ccccc1	1.53
CCOC(=O)Cc1csc(NS(C)(=O)=O)n1	15.5
CCc1cc(-c2[nH]ncc2-c2ccc(OC)cc2)c(O)cc1O	10.8
O=C(N/N=C/c1ccc(OCC(=O)N2CCCC2)cc1)C(=O)NC1CC1	19.2
CN(C(=O)Cn1cnc2sccc2c1=O)C1CCCCC1	1.38
CN(C=O)CP(=O)(O)CN(C)C=O	-0.845
Cc1cccc(C)c1NC(=O)NC1(C(=O)N2CCOCC2)CCCCC1	12.9
COc1ccccc1-n1c(CNc2ccc(F)cc2)nnc1SCC(=O)Nc1cc(C)on1	-1.35
Cc1cccc(NC(=S)NNC(=O)Cc2ccccc2)c1	12.5
O=S(=O)(Nc1cccc2ccccc12)c1ccccc1	-5.57
CCCCN1C(=O)C2NN=C(C(=O)OC)C2C1=O (centres unmarked)	-4.12
COc1ccc(NC(=O)Nc2ccc(OCC(=O)N3CCOCC3)cc2)cc1OC	-2.3
CCCn1nnc(NC(=O)c2ccc(-c3cc(Cl)ccc3Cl)o2)n1	6.96
Cn1c2c(c(=O)n(C)c1=O)C1c3cc(Cl)ccc3OCC1CO2 (centres unmarked)	-18.7

Compound	hERG current change (%, negative = inhibition) at 10uM [%]
Cc1ccc(S(=O)(=O)N2CCC(Oc3cccc(C(F)(F)F)c3)CC2)cc1	10.5
Cc1cc(Cl)ccc1OCC(=O)O	-0.423
Cc1ccc(N(C(=O)c2csnn2)C(C(=O)NC2CCCC2)c2ccccn2)c(C)c1 (centres unmarked)	14.9
Cl.NC(N)=N/N=C/c1ccc(Br)cc1	-17.4
CCn1cc(CN2CCN(Cc3ccccc3)C(CCO)C2)c2ccccc21 (centres unmarked)	-32
COc1ccc(C)cc1NC(=O)c1ccccc1NS(=O)(=O)c1ccc(Cl)s1	23.8
CCC(=O)N1CCN(CCN=CC2=C(O)CC(c3ccc(OC)cc3)CC2=O)CC1 (centres unmarked)	5.11
CCOC(=O)c1c(-c2cccs2)csc1NC(=O)CN1CCOCC1	-12.6
COc1cc(/C=C(\NC(C)=O)C(=O)Nc2ccccc2C)ccc1OC(C)=O	4.81
Cc1ccc(N2C(=O)CC(Cn3nc(C)cc3C)C2=O)cc1 (centres unmarked)	5.87
CCC(C)(C)NC(=O)c1cc(OC)c(OC)cc1[N+](=O)[O-]	26.8
COC(=O)c1c(NC(=O)COC(=O)CCS(=O)(=O)c2ccc(C)cc2)sc(C)c1C	8.18
COc1cccc(NC(=O)N2CCC(n3nnc4ccccc43)CC2)c1	-18.8
Cc1nn(CC(C)C)c2sc(C(=O)NC3CC(C)(C)NC(C)(C)C3)cc12	17.8
Cl.O=C(Cn1cc(CCO)nn1)N1CCNCC1	4.7
O=C(CCl)N1CCN(S(=O)(=O)c2ccc3c(c2)CCC3)CC1	-22.6
COc1ccc(CCN(Cc2cc3cccc(C)c3[nH]c2=O)C(=O)N2CCCC2)cc1OC	-9.15
CCN(C(N)=S)c1ccccc1	0.679
CN(C(=O)COC(=O)COc1ccc2ccccc2c1)c1c(N)n(Cc2ccccc2)c(=O)[nH]c1=O	7.19
COc1ccc(C)cc1S(=O)(=O)N1CCOCC1	21.2
Cn1c(=O)cc(OCCCC(=O)NCc2ccccn2)c2ccccc21	2.41
CC(C)CCNC(=O)c1ccccc1SCC(=O)NC1CCCCCCC1	-14.8
Cc1ccc(C)c(N2CCN(S(=O)(=O)c3c(C)[nH]c(C)c3C(=O)N3CCCCC3)CC2)c1	6.63

Compound	hERG current change (%, negative = inhibition) at 10uM [%]
CSCCC(NS(=O)(=O)c1ccc2c(c1)oc(=O)n2C)C(=O)NC1CCC(C)CC1 (centres unmarked)	4.95
CCOC(=O)COc1c(C=O)cc(Br)cc1OC	-23.3
C/C(=N/NC(=O)CSc1ccccn1)c1ccc([N+](=O)[O-])cc1	-64.2
C=CCOc1ccc(C2/C(=C(\O)c3ccc4c(c3)CC(C)O4)C(=O)C(=O)N2CCN2CCOCC2)cc1OCC (centres unmarked)	19.6
CCC(=O)c1c(NC(C)C)cc(C)oc1=O	21.2
CCCCN(C(=O)c1ccc(Cl)c([N+](=O)[O-])c1)c1c(N)n(CCC)c(=O)[nH]c1=O	12.6
CCOc1ccc(NC(=O)CNC(=O)c2ccc([N+](=O)[O-])cc2)cc1	-7.46
Cc1ccc2nc(C3CCCN(C(=S)Nc4ccccc4C)C3)[nH]c2c1 (centres unmarked)	16.2
COc1cccc(NC(=O)CC(=O)c2ccccc2)c1	14
CC(C)(C)[C@H]1C=C(C(=O)NCc2nc3ccccc3[nH]2)O[C@@H](OCc2ccc(CO)cc2)C1	-18.7
CCOC(=O)c1cccc(NC(=O)CCS(=O)(=O)c2ccc(Br)s2)c1	18.7
CN(CC(=O)Nc1ccc(OC(F)(F)F)cc1)C(=O)Cn1c(=O)cnc2ccccc21	-30.9
COc1ccc(N(CC(=O)N2CCN(c3cccc(C)c3)C(C)C2)S(=O)(=O)c2c(C)n[nH]c2C)cc1 (centres unmarked)	-16.8
NC(=O)CC(NC(=O)Cc1cccc2ccccc12)c1ccc(NCCCN2CCCC2=O)c([N+](=O)[O-])c1 (centres unmarked)	10.1
COc1ccc(S(=O)(=O)Cc2ccc(C(=O)NC3CCC(C)CC3)o2)cc1 (centres unmarked)	-15.8
CCO[C@@H]1OC(C(=O)O)=C[C@H](C2CC2)[C@H]1CCCO	7.6
O=C(CN1CCN(c2ccccn2)CC1)NC(=O)NC1CCCCC1	1.52
O=C(/C=C/c1nc2ccccc2s1)N1CCCCCC1	-0.709
CC(C)N(C(=O)CN1CCN(C(=O)C2COc3ccccc3O2)CC1)C(C)C (centres unmarked)	-0.817
CNC(=O)COc1coc(CN2CCN(c3ccc(OC)cc3)CC2)cc1=O	1.11
